Patent publication US20240400640A1 (published 2024)

Legend:
[1] = target: T1, hPD-L2 (human programmed cell death ligand-2) (human, UniProt Q9BQ51 20-220); test: SPR
T1 chain: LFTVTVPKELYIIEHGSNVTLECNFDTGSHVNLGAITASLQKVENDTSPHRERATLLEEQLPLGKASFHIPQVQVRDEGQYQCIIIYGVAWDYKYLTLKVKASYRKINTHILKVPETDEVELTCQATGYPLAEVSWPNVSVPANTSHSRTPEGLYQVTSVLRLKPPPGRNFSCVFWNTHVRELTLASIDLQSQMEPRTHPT

[2] = target: hPD-L1 (human programmed cell death ligand-1) (human, UniProt Q9NZQ7 fragment); test: SPR
Chain of UniProt Q9NZQ7 (Q9NZQ7 19-238): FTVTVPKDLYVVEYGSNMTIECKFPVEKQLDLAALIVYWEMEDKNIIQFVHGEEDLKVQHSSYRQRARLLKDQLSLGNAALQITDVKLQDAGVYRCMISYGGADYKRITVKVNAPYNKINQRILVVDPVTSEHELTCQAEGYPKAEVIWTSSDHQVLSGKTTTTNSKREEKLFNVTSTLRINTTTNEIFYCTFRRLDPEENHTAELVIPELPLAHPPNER

B1: PD-1 D-Fc (protein)
chain: LDSPDRPWNPPTFSPALLVVTEGDNATFTCSFSNTSESFVLNWYRMSPSNQTDKLAAFPEDRSQPGQDCRFRVTQLPNGRDFHMSVVRARRNDSGTYLCGAISLAPKAQIKESLRAELRVTERRAEGGGGSGGGGS[human IgG1 Fc skipped]
With B1 the Kd [1] was 7.38 nM and the Kd [2] was 128 nM.
